Measured values as given in the supplement of paper PMC5499739.
The full ranking holds about 16,000 sequences; the median of “Z-score” is about -0.37, and the highest 2% start at about 3.1. The list shows a part of the results.

system: RBM10 RRM1-ZnF-RRM2 (GST-tagged construct); experiment: RNAcompete 7-mer binding Z-score; higher = stronger binding preference
Protocol: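 RNAcompete: 20 pmol GST-tagged RBM10 RNA-binding constructs were incubated with a designed RNA pool of about 241,000 sequences up to 41 nt (1.5 nmol) on glutathione beads for 30 min at 4 °C and washed. Bound RNAs were identified by microarray hybridisation. Each RNA 7-mer is scored by a one-sided Z-score of its enrichment, computed over probes that contain the 7-mer within longer pool sequences.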

Sequence | RNAcompete 7-mer binding Z-score
GCUAGCU | -0.471
AAGCCCU | -0.89
UAGACAA | 0.0896
CGUAAAU | -0.599
CACAUUG | -0.562
GUGACUA | 0.162
UCCUGUA | -0.795
GCUUGCC | -0.697
AUAACCU | -0.825
GCGAAUG | 0.8
UAAAAAA | -0.417
GACCAGC | -0.584
UUGCGCA | -0.497
AGGGCUG | 1.07
CACUCCG | -0.672
AAAAACC | -0.602
AAGGAAU | 2.34
GUAAUAA | -0.162
CCUCCGC | -0.734
GAUCACG | -0.133
AGCCCAC | -0.803
UUGUGAC | -0.453
UCGCUAG | -0.457
AUUUUCA | -0.785
UUCGUCG | -0.3

Sequence | RNAcompete 7-mer binding Z-score
AUCCCGA | -0.839
UCGACUA | -0.61
CCACGUA | -0.581
UGAUGGA | 1.53
ACCCGAU | -0.712
ACUCGAG | -0.333
GGCGCUG | 0.385
GUCCAAU | -0.347
UAUCUUG | -0.704
GUGUAGU | 0.942
ACAACCC | -0.53
UAUCGGG | 1.13
GGCUGCA | 0.21
CGGUCGU | -0.0816
GAAAACU | -0.176
CCGCGAG | -0.53
AAGUAUA | -0.0925
GCGACCU | -0.712
UGCAUGG | 1.19
ACCCGCU | -0.872
GGAACCU | -0.147
UCAUGAG | -0.169
GGACGUC | 0.148
CCUCUUG | -0.93
CCUCAUG | -0.661

Sequence | RNAcompete 7-mer binding Z-score
CCUGAAG | -0.504
UCGGAAC | 0.0532
ACUUUCC | -0.905
UAUCUCG | -0.806
UAGAGCA | 0.396
CCAAUCA | -0.537
AUCCCUC | -0.759
CGUCUGC | -0.836
CUUGACC | -0.908
AAUUCGG | 0.0932
CAUAUGC | -0.49
GGCCAGU | 0.173
UAUUACU | -0.581
CCCAGCA | -0.755
ACCGACA | -0.788
CCUCAAG | -0.599
CAGUAGA | 0.352
AGCGUCU | -0.701
AAUAGUU | -0.307
CCCCAAC | -0.683
CAUCAUC | -0.701
GCCGAAA | -0.577
UUUACGU | -0.621
CCAGCGA | -0.0306
CCUUUUC | -0.941

Sequence | RNAcompete 7-mer binding Z-score
GGCGACG | 1.32
UACGCAC | -0.606
GUACGGA | 1.08
GUCCCCU | -0.497
AAAACAU | -0.231
GGAGAGG | 3.28
GCACCAU | -0.442
GAUUUAC | -0.409
CCACUAU | -0.781
GUCACUG | -0.14
UGCACCG | -0.242
AUUUUGG | 0.159
CCUCCGG | -0.504
CAUCUGG | -0.482
AAUUGCG | 0.0568
AUAGUUU | -0.384
GGCGAGA | 1.74
CUCCAGA | -0.664
AUUUAUC | -0.704
GAGUUUG | 0.512
ACGAGCG | 1.05
GCUCUUG | -0.799
GUCCAAG | -0.0598
GACGCUA | -0.53
GCUUUAG | -0.588

Sequence | RNAcompete 7-mer binding Z-score
GGAUCUC | -0.176
AAACCCC | -0.788
UUGCCGU | -0.624
AGAGGUA | 2.05
UAGACAG | 0.512
GAUGGCG | 1.82
UGAUCGU | -0.446
UCCUCCU | -0.832
AGAAAUU | -0.318
ACACAUG | -0.0962
GACGCUG | -0.522
UGAGCCU | -0.668
UAGUUAA | -0.377
GAAGAGA | 0.989
UUCCCGA | -0.814
ACAUGAG | 0.472
GGAUGUG | 2.82
UGCCUGC | -0.715
CUCACAA | -0.559
CUCCCUC | -0.657
UUCCCUG | -0.737
AGCCUGC | -0.854
GUACGAG | 0.894
UUCACUA | -0.617
UUUAUUG | -0.413

Sequence | RNAcompete 7-mer binding Z-score
AAGCCAA | -0.0488
UGAUUAA | -0.118
AUGGUAU | 1.21
GAAACAG | 1.21
AACCCGU | -0.868
UAUCGAG | 0.13
GUUGGAA | 1.48
CUGCUUA | -0.683
GAACCCA | -0.741
GAAUCUC | -0.697
CGACGCU | -0.653
GAUUCGU | -0.202
CCAUUCU | -0.861
ACGCUUG | -0.814
GUUACUA | -0.231
GUACGGU | 1.28
AUACCUG | -0.617
AUAUACC | -0.628
AAUGAAA | -0.213
ACACGCA | -0.351
UCACAGC | -0.384
UUCUUGG | -0.34
AAGUUAC | -0.289
GGAAAAA | 1.95
GCACAUG | 0.0896

Sequence | RNAcompete 7-mer binding Z-score
UGGCUGG | 1.04
AGCUCUC | -0.621
AACUACC | -0.785
CGCACAC | -0.57
UUAUGUC | -0.613
CUGGAGC | 0.126
UCCGAAA | -0.602
CCAUAUU | -0.857
GAGAGCC | -0.329
UAUAGCA | -0.0962
CAAUCAA | -0.34
CAUGAUC | -0.428
AAGCCCG | -0.887
GCAAUAC | -0.0124
GGUAUUG | 1.09
CCACUCG | -0.73
UUGUAUC | -0.548
UCCAUAC | -0.683
ACCGAUC | -0.726
AAUCACG | -0.198
GACUAUU | -0.803
UGCACAG | -0.0233
AGCUCAG | -0.486
UCCGUGG | 0.133
GCAGUGA | 0.439

Sequence | RNAcompete 7-mer binding Z-score
AAGCAUG | -0.0233
GUGUACG | 0.956
GCAGGUG | 1.86
CGGAAAG | 1.91
GCUUAGU | -0.278
CGCGAAC | -0.435
ACAUCGG | 0.184
AAAGAAU | -0.144
CUUAGUU | -0.471
UUUUGAC | -0.905
UUUUGGG | 0.701
UUCAUUU | -0.737
UUCACUU | -0.792
UAAAGGC | 0.745
UACCGUA | -0.42
UCAUGAA | -0.402
UUUUCUU | -0.701
CCCUCCG | -0.57
UAAAUUC | -0.504
CACAGGA | 0.476
GACUGCC | -0.788
CAGCCCG | -0.541
UUCCUAC | -0.792
CGACGUC | -0.734
UGGCCUA | -0.278

Sequence | RNAcompete 7-mer binding Z-score
CGCUAUG | -0.344
CGACCAC | -0.413
UAGAUUG | 0.126
AGCUCCU | -0.752
AAUCUCC | -0.814
GCAUUUA | -0.661
CUGUCUU | -0.959
CCUACUA | -0.912
GGAGAAA | 1.66
GAAUAGA | 0.76
CCUAAAG | -0.541
GACGAAG | 1.49
AUCAUAU | -0.402
ACAUUAU | -0.515
CUAUAAU | -0.635
ACAAGUG | 0.465
UGCGGUA | 0.556
AGGUUCC | -0.00877
GUCACAC | -0.307
CGAGAUC | -0.391
AAUGUCU | -0.661
CCGAUUA | -0.42
ACCUCAG | -0.694
AGAUCGU | -0.333
GCGUAAG | 0.578

Sequence | RNAcompete 7-mer binding Z-score
AAUUAAG | -0.0488
UAGUCUU | -0.748
ACAGGGU | 3.11
CCUCGCC | -0.628
GUUCCCG | -0.606
CAAGCUU | -0.989
CUCACCA | -0.712
CGGGAGU | 1.5
GAGAGAU | 0.592
AUGGUUU | 1.43
CUGCCAC | -0.836
GUAAGCA | 0.392
UACGGAU | 0.665
AGAAUUG | 0.345
CUAUAAA | -0.457
AUCUAGA | -0.592
UGCAUUU | -0.905
UCAUGGU | 0.0495
CCGCGGC | -0.307
AGCCUCG | -0.865
AGAGCCA | -0.766
UAGAUCG | -0.286
UUACAAA | -0.329
UUGCUGG | -0.205
AUUGUCC | -0.817

Sequence | RNAcompete 7-mer binding Z-score
ACUGACC | -0.857
ACGGCUG | 0.0349
AGGUCAG | 0.76
GUAUGAU | 0.224
CAUCGCA | -0.624
GUAACGG | 1.7
CCUGUAU | -0.806
ACUAUUU | -0.872
CCAGCAG | -0.0998
GCCGAUG | 0.0604
UUAGGAG | 2.01
UAUGGGG | 3.19
AACACAG | 0.374
ACGAACU | -0.482
AAUAUGG | 1.27
UGUUUAA | -0.541
UUGGUGG | 2.09
UAGCGUA | -0.147
ACGCCUC | -0.806
GUUGCUG | -0.133
GUAGUGA | 1.1
AAAAAUA | -0.271
GACAUAG | 0.505
CCGAUUC | -0.81
UAGACGU | -0.118

Sequence | RNAcompete 7-mer binding Z-score
UUACUAC | -0.774
CAGAGUA | 0.483
AAGAACU | -0.344
ACGAAGA | -0.289
CGAAUCA | -0.304
CGGCUGA | -0.0306
AUCAUUG | -0.431
UGAGUAA | 0.425
UCCGGUU | -0.358
AGAAGAA | 1
GACACCG | -0.442
AGACAAA | 0.111
CCUGACU | -0.843
CUGAUCA | -0.57
GAAGUCG | 0.428
UCUCCUU | -0.774
CGUCUAC | -0.715
UCCUGAG | -0.522
GAGUAAU | 0.323
GCUCACU | -0.846
CUAUUCG | -0.795
GAAGUAG | 1.39
UGAUUCA | -0.541
UUACCCA | -0.821
CCUUAGU | -0.752

Sequence | RNAcompete 7-mer binding Z-score
CCAGUAA | -0.508
CAGUUUU | -0.715
AAUUUCC | -0.683
AGUGGAU | 2.33
UGGGUCG | 2.13
ACAAUCC | -0.639
CCCAUGA | -0.668
AGAAUCA | 0.0167
UUAUCAA | -0.49
AGAAGGU | 3.67
GUCGAAG | 0.621
UUGCCAA | -0.592
GGGAGGA | 3.24
GUCAAGC | -0.195
CAUGGAC | 0.578
CUACUAA | -0.697
AGAACUA | -0.602
GGAGUAG | 2.98
CUAUGUG | -0.369
GUGUAAU | 0.0131
CCUGUUG | -0.923
GAUUGCG | 0.268
UUUCAAC | -0.777
UGUGCUC | -0.544
AGUUUAU | -0.453

Sequence | RNAcompete 7-mer binding Z-score
UCCGAUC | -0.679
UCAUAUG | -0.384
GAGCCUC | -0.905
CCAUUAA | -0.701
UCUCUAA | -0.683
CUUCGUA | -0.628
UCGUCGA | -0.0998
GAGGAAC | 1.82
GUAAAGC | 0.341
GAAGAAU | 0.447
GAUGCUA | -0.442
CUCCACG | -0.766
AUCGCGC | -0.471
UGCGUUG | 0.104
GCGAGGC | 1.59
GGACUUG | 0.319
GGACGUU | 0.497
GUUCAGC | -0.224
GCAAUGU | 0.436
UCCAAAU | -0.708
UGAGCCC | -0.435
UUCAUGG | 0.184
CCCCUGG | -0.318
GAUUGAU | 0.37
GCGACAU | -0.027

Sequence | RNAcompete 7-mer binding Z-score
GCAAAUG | 0.348
GGCUUCA | -0.428
CGGACGU | 0.348
UCAGCAC | -0.581
CCCCAAA | -0.599
CCGCGUC | -0.712
CUGGAAG | 0.508
GUGGCCC | 0.0786
AAGGUAC | 1.72
AGUAGGU | 2.11
CGACGAC | -0.398
UGACAUG | 0.246
GCAUCCU | -0.777
GUACGCU | -0.205
GAACAAG | 1.24
AAGAUGA | 0.363
UCGGAUC | -0.067
